According to the supplement of paper PMC3334620:
The full ranking holds about 33,000 sequences; the median of “E-score (-0.5 to 0.5)” is about -0.035, and the highest 2% start at about 0.34. The list shows a part of the results.

Biological target: T1, Mot3 (UniProt P54785)
T1 sequence: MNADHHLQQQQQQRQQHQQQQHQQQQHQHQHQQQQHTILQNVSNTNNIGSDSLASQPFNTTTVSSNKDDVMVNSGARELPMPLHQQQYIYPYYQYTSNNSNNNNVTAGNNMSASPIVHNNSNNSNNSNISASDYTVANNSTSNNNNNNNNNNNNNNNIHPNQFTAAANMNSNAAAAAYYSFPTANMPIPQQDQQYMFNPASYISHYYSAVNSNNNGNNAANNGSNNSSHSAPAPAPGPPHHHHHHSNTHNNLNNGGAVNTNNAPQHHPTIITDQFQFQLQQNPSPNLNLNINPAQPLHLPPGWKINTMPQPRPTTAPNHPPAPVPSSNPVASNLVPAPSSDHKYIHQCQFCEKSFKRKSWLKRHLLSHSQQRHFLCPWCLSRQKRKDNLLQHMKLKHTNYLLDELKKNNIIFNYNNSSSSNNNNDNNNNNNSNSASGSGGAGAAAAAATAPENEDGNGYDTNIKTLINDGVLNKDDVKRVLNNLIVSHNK
Test: PBM E-score (8-mer binding enrichment) (E-score (-0.5 to 0.5)); higher = stronger / more preferred TF binding; most listed sequences are background and not binding sites
Details: protein concentration: 200 nM; construct: GST-full length
Summary of the method: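 Detection of bound protein used fluorescent anti-GST, with scans normalised by masliner. The proteins were GST-tagged yeast transcription factors applied at about 100-200 nM to universal all-10-mer Agilent arrays made double-stranded by primer extension. Each ungapped eight-base word, pooled with its reverse complement, was scored with an E-score from the Universal PBM Analysis Suite.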

| Sequence | PBM E-score |
| --- | --- |
| CGACTGCG | -0.0889 |
| ACTCGGAA | -0.192 |
| CCCCAATC | -0.174 |
| TATCGGCA | -0.0281 |
| ACAACCGC | -0.0456 |
| TTCAGCAA | 0.0416 |
| AATTTGAT | -0.133 |
| CGTCGCTC | -0.219 |
| ATTTCGAC | 0.00058 |
| GGGCCCAC | -0.255 |
| ACCGCTCA | -0.122 |
| GCAACAGC | 0.0716 |
| CGGGAGTA | -0.221 |
| ATCAAAGC | -0.104 |
| TCGGCCGA | -0.26 |
| TAGCTACA | 0.0558 |
| TAGCGAAA | -0.0801 |
| ACAGCTGT | -0.0347 |
| CCCCACAC | -0.354 |
| CCCCTTTC | -0.0457 |
| ACATAGAT | 0.21 |
| CGCGGCGC | -0.193 |
| ATCGCTGA | -0.182 |
| CAAGAGAC | -0.0444 |

| Sequence | PBM E-score |
| --- | --- |
| GGAGAAAC | -0.149 |
| TCACCGGA | -0.13 |
| ATGTGATG | 0.0138 |
| AAGGAGGG | -0.113 |
| CTACCTCC | -0.00212 |
| ACACTGCG | -0.13 |
| CAAACGGA | -0.171 |
| AAAAAGGC | 0.29 |
| ACTGCCCT | -0.227 |
| ACCCATAC | -0.088 |
| AAAGTGCA | -0.0801 |
| AACTGAGT | 0.00615 |
| CCTCCTCA | -0.171 |
| AGCCCAGG | -0.0618 |
| TCCAGACA | -0.191 |
| GACTTGTA | 0.177 |
| GTAACTCA | -0.145 |
| GAGACGCC | -0.289 |
| AATGGTAT | -0.0595 |
| AGACACGC | 0.0942 |
| ACTTAGAA | -0.0888 |
| GAGTCCCC | -0.341 |
| ATCCAATC | -0.238 |
| ACAGGAGT | 0.126 |

| Sequence | PBM E-score |
| --- | --- |
| AGCACGGC | 0.161 |
| TACGCTGA | 0.189 |
| ATTGACGA | 0.0928 |
| ATGCAAAC | -0.0572 |
| TTATGGAA | 0.0164 |
| GTCAGAGA | -0.242 |
| CCCATAAA | -0.103 |
| CAGCCTGA | -0.209 |
| ACTTTTAC | 0.235 |
| ATCCGGAG | -0.0342 |
| CGCCTGTA | 0.213 |
| AATAAATG | 0.0869 |
| AAACAATG | 0.191 |
| GTGGATGA | -0.0229 |
| CCCACCGG | -0.388 |
| ACATGCAT | 0.295 |
| AGAAGTCG | -0.102 |
| CATGTCTA | 0.223 |
| GTGGGCTA | -0.25 |
| AATGGTGA | 0.0586 |
| GCCATAGA | -0.279 |
| AGAAATAA | 0.0617 |
| AGACTTAA | 0.053 |
| CGGGCTGA | -0.22 |

| Sequence | PBM E-score |
| --- | --- |
| CGGCGAAA | -0.109 |
| AATCTTAA | 0.119 |
| ACCCCCGC | -0.214 |
| AGCAGGAT | -0.0589 |
| ATAATAAT | 0.121 |
| ACATTCGA | 0.0576 |
| CGCTCAAC | -0.0198 |
| GGGATATA | -0.187 |
| AGCCGGGC | -0.248 |
| GTTGGGAA | -0.105 |
| GAACAGAC | 0.134 |
| TCCATCAA | 0.107 |
| GGAGGTGA | -0.0735 |
| AAACCTTG | 0.114 |
| ATAACTAA | 0.152 |
| CACGTCAG | 0.0313 |
| ATGTTTAC | 0.374 |
| CGTAGGAG | -0.0892 |
| ACTGGTCC | -0.277 |
| GCGCAGAA | -0.114 |
| AAGTATCT | -0.00241 |
| GGCTGCAC | -0.101 |
